Laboratory results from the RNAGym collection of RNA variant scans (doi:10.1073/pnas.2313332121).
This sample is rich in variants without activity.

B1: TPR 5TU (parent)
chain: GGAUCUUCUCGAUCUAACAAAAAAGACAAAUCUGCCACAAAGCUUGAGAGCAUCUUCGGAUGCAGAGGCGGCAGCCUUCGGUGGCGCGAUAGCGCCAACGUUCUCAACUAUGACACGCAAAACGCGUGCUCCGUUGAAUGGAGUUUAUCAUG

Variants of: B1
Assay: polymerase ribozyme fitness, log enrichment relative to wild type (log ratio); higher = more active; in vitro selection for triplet polymerase activity
How it was run: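 Mutant libraries were PCR-built and transcribed for each subunit of a heterodimeric triplet polymerase ribozyme and selected for one round in triplicate at −7 °C, frozen, before gel excision of extended constructs and streptavidin-bead capture. Input and output libraries were Illumina-sequenced, keeping genotypes with ≥10 input reads and ≥1 read per output. Fitness is a logarithmic ratio of genotype to wild-type enrichment, in base 2, using inverse-variance-weighted replicate averages.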

Variant	polymerase ribozyme fitness (log ratio)
GGAUCUUCUCGAUCUAACAAAAAAGACAAAUCUGCCACAAAGCUUGAGAGCCUCUUCGGAUGCAGAGGCGGCAGCCUUCGGUGGCGCGAUAGCACCAACGUUCUCAACUAUGACACGCACAACGUGAUCUCCGUUGAAUGGAGUUUAUCAUG [A52C G94A A120C C125U U127A G128U]	≤ -4.2
GGAUCUUCUCGAUCUAACAAAAAAGACAAAUCUGCCACAAAGCUUGAGAGCCUCUUCGGAUGCAGAGGCGGCAGCCUUCGGUGGCGCGAUAGCCCCAACGUUCUCAACUAUGAGACGCAAGACGCGUGCUCCGUUGAAUGGAGUUUAUCAUG [A52C G94C C114G A121G]	≤ -4.2
GGAUCUUCUCGAUCUAACAAAAAAGACAAAUCUGCCACAAAGCUUGAGAGCCACUUCGGAUGCAGAAGCGGCAGCCUUCGGUGGGGCAAUAGCGCCAACGUUCUUAACUAUGACACGCAAGACGCGUGCUCCGUGGAAUGGAGUUUAUCAUG [A52C U53A G67A C85G G88A C105U A121G U135G]	≤ -4.2
GGAUCUUCUCGAUCUAACAAAAAAGACAAAUCUGCCACAAAGCUUGAGAGCCACUUCGGAUGCAGAGGCGGCAGCCUUCCGAGGCGCGAUAGCGCCAAGGUUCUCUACUAUGACACGCAAAACGCGUGCUCCGUUGAAUGGAGUUUAUCAUG [A52C U53A G80C U82A C99G A106U]	≤ -4.2
GGAUCUUCUCGAUCUAACAAAAAAGACAAAUCUGCCACAAAGCUUGAGAGCCACUUCGGAUGCAGAGGCGGCAGCCUUCGGUGGCCCGAUAGCGCCAACGUUCUCAACUAUGACACGCAAAACGCGUGCUCGGUUGAAUGGAGUUUAUCAUG [A52C U53A G86C C132G]	≤ -4.2
GGAUCUUCUCGAUCUAACAAAAAAGACAAAUCUGCCACAAAGCUUGAGAGCCUCAUCGGAUGCAGAGGCGGCAGCCUUCGGUGGCGCGAUGGCGCCAACGUUCUCAACUAAGACACGCAAAACGCGUGCUCCGUUGAAGGGAGUUUAUCAUG [A52C U55A A91G U111A U139G]	≤ -4.2
GGAUCUUCUCGAUCUAACAAAAAAGACAAAUCUGCCACAAAGCUUGAGAGCCUCAUCGGAUGCAGAGGCGGUAGCCUUCGGUGGCGCGAUAGCGCCAUCGUUCUCAACUAUGACACGCAAAACGCGUGCUCCGUUGAAUGGAGUUUAUCAUG [A52C U55A C72U A98U]	-3.14
GGAUCUUCUCGAUCUAACAAAAAAGACAAAUCUGCCACAAAGCUUGAGAGCCUCAUCGCAUGCAGAGGCGGCAGCCUACGGUGGCGCGCUAGCCCCAACGUUCUCAACUAUGACACGCAAAACGCGUGCUCCGUUGAAUGGAGCUUAUCAUG [A52C U55A G59C U78A A89C G94C U144C]	≤ -4.2
GGAUCUUCUCGAUCUAACAAAAAAGACAAAUCUGCCACAAAGCUUGAGAGCCUCGUCGGAUGCAGCGGCGGCAGCCUUCGGUGGGGCGAUAGCGCCAACGUUCUCAACUAUGACACGCAAAACGCGUGCUGCGAUGAAUGGAGUUUAUCAUG [A52C U55G A66C C85G C131G U134A]	≤ -4.2
GGAUCUUCUCGAUCUAACAAAAAAGACAAAUCUGCCACAAAGCUUGAGAGCCUCGUCGGAUGCAGAGGCGGCAGCCUUUGGUGGUGCGAUGGCGCCAACGUUCUCAACUAUGAUACGCAAAACGCGUGCUCCGUUGAAUGGAGUUUAUCAUG [A52C U55G C79U C85U A91G C114U]	≤ -4.2
GGAUCUUCUCGAUCUAACAAAAAAGACAAAUCUGCCACAAAGCUUGAGAGCCUCUACGGAUGCAGAGGCGGCAGGCUUCGGUAGCGCGAUAGCGCCAACGUUCUCAACUAUGUCACGCAAAACGCGUGCUCCGUUGAAUGGAGUUUAUCAUG [A52C U56A C75G G83A A113U]	≤ -4.2
GGAUCUUCUCGAUCUAACAAAAAAGACAAAUCUGCCACAAAGCUUGAGAGCCUCUACGGAUGCAGAGGCGGCAGCCUUCGGUGGCGCGAUAGCGCAAACGUUCUCAACUGUGACACGCAAAACGCGUGCUCCGUUGAAUGGAGUUUAUCAUG [A52C U56A C96A A110G]	-3.99
GGAUCUUCUCGAUCUAACAAAAAAGACAAAUCUGCCACAAAGCUUGAGAGCCUCUACGGAUGCAGAGCCGGCAGCCUUCGGUAGCGCGAUAGCGCCAACGUUCUCAACUAUGACACGCAAAACGCGUGCUCCGUUGAAUGGAGUUUAUCAUG [A52C U56A G68C G83A]	≤ -4.2
GGAUCUUCUCGAUCUAACAAAAAAGACAAAUCUGCCACAAAGCUUGAGAGCCUCUACGGAUGCAGAGGCGGCAGCCUUCGGUGGCGCGAUAGCGCCAACGUUCUCAACUACGACACGCAAAACGCGUGCUCCGUUGAAUGGAGUUUAUCAUG [A52C U56A U111C]	≤ -4.2
GGAUCUUCUCGAUCUAACAAAAAAGACAAAUCUGCCACAAAGCUUGAGAGCCUCUUCGGAUGCAGAGGCGGCAGCCUCCGGUGGCGCCAUAGCGCAAACGUUCUCAACUAUGACAUGCAAAACGCGUGCUCCGUUGAAUGGAGUUUAUCAUG [A52C U78C G88C C96A C116U]	≤ -4.2
GGAUCUUCUCGAUCUAACAAAAAAGACAAAUCUGCCACAAAGCUUGAGAGCCUCUUCGGAUGCAGAGGCGGCAGCCUUCGGCGACGCGAUCGCGCCAACGUUCUCAACUAUGACACGCAAAACGCGUGCUCCGUUGAAUGGAGUUUAUCAUG [A52C U82C G84A A91C]	≤ -4.2
GGAUCUUCUCGAUCUAACAAAAAAGACAAAUCUGCCACAAAGCUUGAGAGCCUCUUCGGAUGCAGAGGCGGCAGCCUUCGGUGGCGCGAUAGCGCCAACGCUCUCAACUACGACACGCAUAACGCGUGCUCCGUUGAAUGGAAUUUAUCAUG [A52C U101C U111C A120U G143A]	≤ -4.2
GGAUCUUCUCGAUCUAACAAAAAAGACAAAUCUGCCACAAAGCUUGAGAGCCUCUUCGGAUGCAGAGGCGGCAGCCUUCGGUGGCGCGAUAGCGCCAACGUCCUCAACUAUGACACGCAAAACGCGUGCUCCGUCGAAUGGAGUUUAUCAUG [A52C U102C U135C]	≤ -4.2
GGAUCUUCUCGAUCUAACAAAAAAGACAAAUCUGCCACAAAGCUUGAGAGCCUCUUCGGAUGCAGAGGCGGCAGCCUUCGGUGGCGCGAUAGCGCCAACGUUCUCAACUAUGACACGCAAAACGCGUGCUCCGUUGAAAGGAGUUUAUCAUG [A52C U139A]	≤ -4.2
